Here are results for 57 compounds from article PMC4336329 (PLoS ONE, 2015).

The campaign covered roughly 310,000 compounds. About 2,200 (0.71%) showed an effect of 50% or more. The effect is printed as a negative number. Some of the results follow.

human ether-à-go-go-related gene (hERG) potassium channel, sequence (Q12809 whole entry, looked up): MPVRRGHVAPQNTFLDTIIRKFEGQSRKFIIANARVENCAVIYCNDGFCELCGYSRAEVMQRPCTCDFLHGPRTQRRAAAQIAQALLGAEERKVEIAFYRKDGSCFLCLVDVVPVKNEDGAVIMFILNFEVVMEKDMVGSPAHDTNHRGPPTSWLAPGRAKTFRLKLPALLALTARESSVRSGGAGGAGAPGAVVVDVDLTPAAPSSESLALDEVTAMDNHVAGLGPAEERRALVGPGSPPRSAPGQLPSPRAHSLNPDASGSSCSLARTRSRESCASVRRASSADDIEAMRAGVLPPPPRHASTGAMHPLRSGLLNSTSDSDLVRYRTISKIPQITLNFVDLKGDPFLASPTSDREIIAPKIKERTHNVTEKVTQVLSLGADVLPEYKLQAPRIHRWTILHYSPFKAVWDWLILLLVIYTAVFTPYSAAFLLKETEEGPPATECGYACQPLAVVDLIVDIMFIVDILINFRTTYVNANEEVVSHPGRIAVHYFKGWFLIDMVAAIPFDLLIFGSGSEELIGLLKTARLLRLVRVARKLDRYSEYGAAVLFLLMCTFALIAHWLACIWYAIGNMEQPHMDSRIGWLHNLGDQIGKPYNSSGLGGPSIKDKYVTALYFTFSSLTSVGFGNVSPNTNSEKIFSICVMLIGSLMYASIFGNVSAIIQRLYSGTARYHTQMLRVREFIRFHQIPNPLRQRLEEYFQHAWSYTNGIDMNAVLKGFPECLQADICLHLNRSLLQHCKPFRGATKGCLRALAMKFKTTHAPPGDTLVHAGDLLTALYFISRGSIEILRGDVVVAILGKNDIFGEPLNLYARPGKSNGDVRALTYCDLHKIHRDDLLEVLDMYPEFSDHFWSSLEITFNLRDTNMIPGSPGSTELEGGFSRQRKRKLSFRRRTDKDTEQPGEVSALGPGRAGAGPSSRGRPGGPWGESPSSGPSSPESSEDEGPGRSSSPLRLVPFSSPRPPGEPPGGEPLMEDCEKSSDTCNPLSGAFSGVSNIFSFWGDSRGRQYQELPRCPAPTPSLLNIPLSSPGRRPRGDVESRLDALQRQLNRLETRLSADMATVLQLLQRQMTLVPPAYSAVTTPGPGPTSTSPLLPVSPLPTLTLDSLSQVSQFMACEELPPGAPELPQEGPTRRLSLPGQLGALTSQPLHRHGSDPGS

This assay concerns the target human ether-à-go-go-related gene (hERG) potassium channel (human, UniProt Q12809). Nature of the assay: primary screen, population patch clamp on CHO cells stably expressing hERG.
With `COc1cccc(C(=O)OCC(=O)c2c[nH]c3ccccc23)c1O`, the “hERG current change (%, negative = inhibition) at 1uM” value was determined as 9.62%.

Consider `Cc1cc(C)c(S(=O)(=O)N2CCN(C(=O)CCn3nc(C)c(C)c3C)CC2)c(C)c1`, for which the “hERG current change (%, negative = inhibition) at 1uM” value is recorded as -0.0132%.

As to `O=S(=O)(Nc1ccc2ccccc2n1)c1ccc2c(c1)CCO2`, the “hERG current change (%, negative = inhibition) at 1uM” value is listed as 11.2%. Regarding `CCOC(=O)Nc1sc(NS(=O)(=O)c2ccc(C)cc2)nc1C`, the “hERG current change (%, negative = inhibition) at 1uM” value is 6.6%. In the case of `Cc1c(Cl)c([N+](=O)[O-])nn1Cc1ccc(C(=O)N/N=C\c2cccc(Br)c2)o1`, the “hERG current change (%, negative = inhibition) at 1uM” value is reported as 7.39%. Next, `CNS(=O)(=O)c1cccc(C(=O)OCC(=O)Nc2ccccc2F)c1`: -0.168%; `O=C(c1ccccc1)N1CCN(C(=O)c2cc3nc(-c4ccccc4)cc(C(F)(F)F)n3n2)CC1`: 4.91%; `Fc1ccc(NC(=S)N2CCc3[nH]c4ccccc4c3C2)cc1`: 9.31%. Next, `Cc1cc(=O)n2[nH]c(-c3ccc(F)cc3)nc2n1`: 14.4%; `COc1ccc(C(=O)Nc2nccs2)cc1OC`: 0.458%; `CCOC(=O)c1cnc(SC)nc1Sc1ccc(Cl)cc1Cl`: -0.374%. Consider `Cc1ccc2c(c1)C(=O)C(=O)N2CC(=O)Nc1ccccc1NC(=O)c1ccccn1`, for which the “hERG current change (%, negative = inhibition) at 1uM” value amounted to 1.58%. On to `CCOC(=O)COc1ccc(S(=O)(=O)Nc2cccc(SC)c2)cc1`, for which the “hERG current change (%, negative = inhibition) at 1uM” value is on record as -1.68%. Next, `CCOC(=O)Nc1sc(C)c(C)c1C(=O)OCC`: 13.4%; `Cc1ccc(C(=O)C2CN3CCC2CC3)cc1.Cl` (stereo not drawn): -8.7%; `CCS(=O)(=O)N1CCN(c2ccccc2F)CC1`: 29.6%. For `CCn1cc(C(=O)NCc2ccc3c(c2)OCO3)c(=O)c2cc(F)c(N3CCN(C(=O)c4ccco4)CC3)cc21` the value was 6.56%; for `COCCn1nnnc1C1(N(Cc2cc3cc(C)ccc3[nH]c2=O)CC2CCCO2)CCN(C)CC1` (stereo not drawn), 3.81%; for `Cn1cc(CN2CCC(C(O)c3cccs3)CC2)c(-c2cccc(Cl)c2)n1` (stereo not drawn), -2.58%. For `Cc1ccc(S(=O)(=O)NCCC(=O)OCC(=O)NC(=O)c2cccn2C)cc1` the value was 6.53%. For the compound `COc1cc(C(CCN2CCCC2)c2c(OC)cc(OC)c3c(-c4ccccc4)cc(=O)oc23)cc(OC)c1OC` (stereo not drawn), the “hERG current change (%, negative = inhibition) at 1uM” value is listed as -10.9%. As to `Cc1cccc(N2CC(C)Cn3c2nc2c3c(=O)[nH]c(=O)n2C)c1` (stereo not drawn), the “hERG current change (%, negative = inhibition) at 1uM” value was found to be 3.18%. Take `CCOc1ccc(C(=O)NCC(=O)NCC(c2ccc(OC)cc2)N2CCOCC2)cc1OCC` (stereo not drawn): the “hERG current change (%, negative = inhibition) at 1uM” value is 14.2%. For `CCN(CC)c1ccc2nc3c4ccccc4c(=O)cc-3oc2c1` the value was 15.4%; for `CN1C(=O)N(C)C(=O)C2(Cc3ccccc3N3CCCC32)C1=O` (stereo not drawn), 13.3%.

On to `Cc1cccc(CSCc2ccc(C(=O)NC(C)C)o2)c1`, for which the “hERG current change (%, negative = inhibition) at 1uM” value is 14.9%. `CN(C)S(=O)(=O)c1ccc(NC(=O)CN2CCc3ccccc32)cc1`: the “hERG current change (%, negative = inhibition) at 1uM” value worked out at 18%.

Regarding `CCOc1ccc(NC(=O)C2CCCCN2S(=O)(=O)c2ccccc2)cc1` (stereo not drawn), the “hERG current change (%, negative = inhibition) at 1uM” value was -1.61%. Consider `COc1ccccc1NC(=O)CC(NCc1ccccc1)C(=O)O` (stereo not drawn), for which the “hERG current change (%, negative = inhibition) at 1uM” value is reported as 6.6%. For `Cc1ccc(-c2ccc(=O)n(CCC(=O)N3CCC4(CC3)OCCO4)n2)cc1` the value was -38.6%; for `S=C(NNc1ccc2ccccc2c1)NC1CCCCC1`, 15.1%; for `COc1ccc2[nH]c(C(=O)NCCCn3ccnc3)cc2c1`, 6.88%. For `COC(=O)c1ccccc1N(C)S(=O)(=O)c1cc2c(cc1C)OCC(=O)N2` the value was 5.7%. As to `COc1ccccc1C(=O)Nc1sc2c(c1C#N)CCC2`, the “hERG current change (%, negative = inhibition) at 1uM” value is 5.02%. Next, `Cc1cccc(Cc2ccc(Cl)nn2)c1`: 13.2%.

Turning to `Cc1noc(C)c1COC(=O)CCCOc1ccc(Cl)cc1Cl`, the “hERG current change (%, negative = inhibition) at 1uM” value was found to be 14.8%.

With `CCOc1ccc2[nH]c(C)c(CN3CCN(CC)CC3)c(=O)c2c1`, the “hERG current change (%, negative = inhibition) at 1uM” value worked out at 12.8%. Next, `COc1ccc(-c2cc(C(F)(F)F)nc(SCC(=O)NCCCN3CCOCC3)n2)cc1`: -3.6%; `Cc1ccc(O)c(CCc2ccc(O)cc2)n1.Cl`: 5.83%; `CC(=O)c1ccc(-n2nncc2-c2ccc([N+](=O)[O-])cc2)cc1`: 3.64%. `CCC(=O)Nc1cccc(NC(=O)CSc2nnnn2C2CCCC2)c1`: the “hERG current change (%, negative = inhibition) at 1uM” value is recorded as 1.01%.

In the case of `NC(=O)c1nsc(C(=O)N(c2cccc(F)c2)C(C(=O)NC2CCCC2)c2ccc(O)cc2)c1N` (stereo not drawn), the “hERG current change (%, negative = inhibition) at 1uM” value was determined as 15.7%. For `O=C(NC1CCCc2ccccc21)c1c(F)cccc1Cl` (stereo not drawn) the value was 9.5%; for `Nc1ccc(NC(=O)c2ccccc2)c2c1C(=O)c1ccccc1C2=O`, 15.2%; for `Cn1c(=O)c2c(nc(SCC(=O)c3ccc(F)cc3)n2C)n(C)c1=O`, 1.25%. For `Cc1ccc(NC(=O)CSCC(=O)N=c2sccn2C)cc1` the value was 8.85%; for `NC(=S)N/N=C/c1ccc(C(F)(F)F)cc1`, 10.7%.

With `O=C(N/N=C/c1cc2c(cc1Cl)OCO2)c1ccncc1`, the “hERG current change (%, negative = inhibition) at 1uM” value is given as 19.5%. On to `CCN(CC)CC#CCC1(O)c2ccccc2-c2ccccc21.Cl`, for which the “hERG current change (%, negative = inhibition) at 1uM” value came out at 7.63%. For `Cc1ccc(NC(=O)Cn2nc(C(F)(F)F)c3c2CCC3)cc1` the value was 7.59%; for `O=C(O)CCc1ccc(S(=O)(=O)NCCc2ccccc2)cc1`, 3.76%. For `Cc1cc(C(=O)CSc2nc3ccccc3[nH]2)c(C)n1C` the value was 1.76%; for `Cc1ccccc1CNC(=O)c1ccccc1N(C)S(=O)(=O)c1ccccc1`, 16.5%; for `O=C(NC(Cc1c[nH]c2ccccc12)C(=O)N/N=C/c1cccc2ccccc12)c1cccs1` (stereo not drawn), -5.36%. On to `COC(=O)CC1C(=O)NCCN1C(=O)Nc1ccccc1` (stereo not drawn), for which the “hERG current change (%, negative = inhibition) at 1uM” value is on record as 11.5%. For the compound `O=C(C1CCN(S(=O)(=O)N2CCOCC2)CC1)N1CCN(c2ccc(F)cc2)CC1`, the “hERG current change (%, negative = inhibition) at 1uM” value is reported as -2.08%. For `C[C@@H](C(=O)NCC1CC1)[C@H]1C[C@]1(C)[C@H](NC(=O)OCc1ccccc1)c1ccccc1` the value was 2.79%.
